Results as given in patent US20130331317A1 (published 2013).
One block for each binder: values may come before it.

Target: T1, ligand-binding domain of human FGFR1c (D142 to R365) (human, UniProt P11362 142-365)
T1 chain: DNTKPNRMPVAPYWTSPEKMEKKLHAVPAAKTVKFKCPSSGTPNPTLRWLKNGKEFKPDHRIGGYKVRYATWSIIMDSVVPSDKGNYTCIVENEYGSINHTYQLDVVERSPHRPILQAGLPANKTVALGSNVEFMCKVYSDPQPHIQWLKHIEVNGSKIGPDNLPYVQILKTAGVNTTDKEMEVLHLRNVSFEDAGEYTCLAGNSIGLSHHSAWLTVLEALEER
Test: SPR

Kd: 1910 nM
B1: human FGF19 ([…]), N-terminally hexahistidine-tagged mature form (ligand)
chain: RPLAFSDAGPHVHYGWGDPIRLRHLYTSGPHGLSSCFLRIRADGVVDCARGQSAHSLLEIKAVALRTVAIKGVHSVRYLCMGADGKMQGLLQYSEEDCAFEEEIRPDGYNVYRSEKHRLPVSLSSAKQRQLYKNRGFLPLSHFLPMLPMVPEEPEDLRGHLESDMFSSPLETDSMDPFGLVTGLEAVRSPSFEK

Kd: 58 nM
B2: human FGF2 ([…]) (ligand)
chain: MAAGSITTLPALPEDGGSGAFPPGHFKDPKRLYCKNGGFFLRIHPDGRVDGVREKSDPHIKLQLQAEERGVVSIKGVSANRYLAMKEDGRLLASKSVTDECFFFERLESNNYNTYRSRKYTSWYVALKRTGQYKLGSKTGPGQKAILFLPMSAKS
